The results in this text go back to PubChem BioAssay AID1346428 (National Center for Advancing Translational Sciences (NCATS), 2018).

The structures appear in SMILES notation. Several values for one entry are separate records, joined by “and”; a condition that tells them apart may be missing. Identical values can stand only once. Screen size: about 48,000 compounds; about 1,200 (2.5%) were called active. Roughly 2% stayed inconclusive and do not appear here.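 How the source made its calls: active means activation of at least 60% and not above a set upper limit (about 1 call in 100 departs from these limits); inconclusive means activation of 40% to 60%, or above that upper limit; inactive means activation under 40%.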 Some of the results follow.

Sequence of UniProt O75388 (O75388 whole entry, looked up, the tested form may be a part): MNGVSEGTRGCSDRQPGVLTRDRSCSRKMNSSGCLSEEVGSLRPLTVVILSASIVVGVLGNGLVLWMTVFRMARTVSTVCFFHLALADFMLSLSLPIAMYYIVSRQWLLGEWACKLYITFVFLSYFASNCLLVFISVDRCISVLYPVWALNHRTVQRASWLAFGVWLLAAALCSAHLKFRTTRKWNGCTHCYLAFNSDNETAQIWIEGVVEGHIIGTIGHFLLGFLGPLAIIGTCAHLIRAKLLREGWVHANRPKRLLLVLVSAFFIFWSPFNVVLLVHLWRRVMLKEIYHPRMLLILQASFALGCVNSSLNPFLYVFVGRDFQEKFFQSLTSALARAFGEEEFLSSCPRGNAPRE

The target in this test is Probable G-protein coupled receptor 32 (Homo sapiens) (UniProt O75388). Kind of test: qHTS for Agonists of Human Resolvin D1 Receptor DRV1. Further: 0% is about no effect. The following applies: CHO-K1 GPR32 beta-arrestin PathHunter luminescence, 90 min; at 76.9 µM; hits give high values; zero percent set by DMSO-only wells. The gist of the method:
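PathHunter enzyme-fragment complementation, CHO-K1 GPR32 stable line; 2,500 cells/well, overnight attach; cpd 90 min 37 °C 5% CO2; detection reagent 1 h RT; chemiluminescence. DMSO = EC0.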
On the technique in general: qHTS replaces the single test concentration by a dilution series.
Take `Cc1c(Cl)cccc1Nc1nn2c(=O)c3ccc(C(=O)N(C)Cc4ccccc4)cc3nc2s1`: the activation was inactive: -6.34%. As to `COc1ccc(NC(=O)c2cc3c(C)nn(-c4ccccc4)c3s2)c(OC)c1`, the activation is inactive: -9.51%. As to `Cc1ccc2nc(COc3cccc(NC(=O)COc4ccc(F)cc4)c3)cc(=O)n2c1`, the activation is inactive: -0.254%. Take `Cc1ccc(NC(=O)CCS(=O)(=O)c2ccc3c(c2)oc(=O)n3C)c(Br)c1`: the activation is inactive: -0.886%. In the case of `O=c1[nH]c(SCc2c(F)cccc2Cl)nc2c1CCCC2`, the activation is inactive: 19.5%. Turning to `COc1ccc(-c2nc(CSCC(=O)N3CCN(c4ccccc4)CC3)c(C)o2)cc1`, the activation was inactive: -0.536%. With `COc1ccc(N2CCN(C(=O)CSCc3ccc(C)cc3)CC2)cc1` the figure was inactive: -24.9%; with `CC(=O)c1cccc(NS(=O)(=O)c2cccc(S(=O)(=O)c3ccc(Br)cc3)c2)c1`, active: 62.9%; with `CN(C)C(=O)/N=N/C(=O)N(C)C`, inactive: 17.1%. Regarding `COCCNC(=O)c1[nH]c2cc(C)ccc2c1Sc1ccc(Cl)cc1`, the activation was inactive: -16.7%. Turning to `O=C(Nc1cccc(-c2nc3ccccc3o2)c1)c1cccc2c(Cl)cccc12`, the activation was inactive: -6.12%. Take `Cc1c(Cl)cccc1NC(=O)c1cc2nc(-c3ccc4c(c3)OCO4)cc(C(F)(F)F)n2n1`: the activation was inactive: 3.99%. As to `CC(C)OC(=O)OCOP(=O)(CO[C@H](C)Cn1cnc2c(N)ncnc21)OCOC(=O)OC(C)C`, the activation is inactive: 7.67%.

For `O=C(COc1ccccc1)OCc1cc(=O)n2nc(-c3cccs3)sc2n1`, the activation is inactive: -0.94%.

For `CC(C)(C)OC(=O)N1CCC(c2c(C(=O)Nc3ccc4c(c3)OCO4)cnn2-c2ccccc2)CC1`, the activation is inactive: 3.59%.

As to `CCc1nn(CC(=O)NC(C)CC)c(=O)c2cc3occc3n12` (stereo not drawn), the activation is inactive: 1.99%. For the compound `COc1ccc(CNC(=O)c2cnc3ccc(C)cn3c2=O)cc1`, the activation is inactive: 5.46%. With `COc1cccc(OCCn2c(-c3ccc(Br)cc3)nc3ccccc3c2=O)c1` the figure was inactive: -9.89%; with `O=C(NCc1ccc2c(c1)CCN2C(=O)c1ccncc1)c1ccccc1F`, inactive: -15.6%; with `COC(=O)c1c(-c2cccs2)csc1NC(=O)c1ccc(C(C)C)cc1`, inactive: -3.72%. Take `COc1ccccc1CNc1ncnc2c1nnn2C`: the activation is inactive: 4.22%. For the compound `CCOCCCn1c(=N)c(S(=O)(=O)c2ccc(Cl)cc2)cc2c(=O)n3cccc(C)c3nc21`, the activation is inactive: -3.67%. Consider `COC(=O)c1ccccc1NC(=O)CCS(=O)(=O)c1nc(-c2ccc3c(c2)OCO3)cc(C(F)(F)F)n1`, for which the activation is inactive: -12.8%. As to `COc1ccc(CNC(=O)CCNS(=O)(=O)c2ccc3c(c2)CCCC(=O)N3)cc1`, the activation is inactive: 16.2%.

Regarding `Cc1ccc(Cn2c(CCNC(=O)C(C)C)nc3ccccc32)cc1`, the activation is inactive: -10.6%. With `Cc1ccc(Cl)cc1N(C)C(=O)C1CCCN(c2ncnc3onc(-c4ccc(F)cc4)c23)C1` (stereo not drawn) the figure was inactive: -22%; with `COc1ccc(-c2nc(SCC(=O)NCc3ccccc3Cl)n[nH]2)cc1`, inactive: -6.83%; with `O=C(Cn1nc(-c2ccc(Cl)cc2)ccc1=O)NCCc1ccccc1`, inactive: -7.07%. With `C=C1C[C@@]23CC[C@H]4[C@@](C)(CCC[C@@]4(C)C(=O)OC4OC(CO)C(O)C(O)C4O)[C@@H]2CC[C@]1(OC1OC(CO)C(O)C(O)C1OC1OC(CO)C(O)C(O)C1O)C3` (stereo partly drawn), the activation was inactive: -2.41%. Take `CCOC(=O)CCc1c(C)nc2c(c(C)nn2-c2ccc(C)cc2)c1C`: the activation was inactive: -1.52%.

On to `O=C(C1CCC1)N1CCc2cc(S(=O)(=O)NCCc3ccccc3)ccc21`, for which the activation is inactive: 3.83%. Take `Cc1nn(-c2ccc(N3CCCC3)nn2)c(C)c1CCC(=O)N1CCN(c2ccccc2F)CC1`: the activation is inactive: -15.3%. For `CCOC(=O)c1cnc(N2CCN(c3ccc(OC)cc3)CC2)c2ccccc12` the value was inactive: -34.5%. Consider `CC1CCN(S(=O)(=O)c2csc(C(N)=O)c2)CC1`, for which the activation is inactive: -8.37%. Turning to `COc1ccccc1N1CCN(c2ncnc3c2c(-c2ccccc2)cn3-c2cccc(C)c2)CC1`, the activation was inactive: -6.72%. For `CCOC(=O)c1c(S(=O)(=O)NCC(=O)N(C)Cc2ccccc2)c(C)n(C)c1C`, the activation was inactive: 0.271%. With `CCN1CCN(c2ncnc3c2cnn3-c2cc(Cl)ccc2C)CC1` the figure was inactive: 20.7%. For `O=C(CSc1oc(-c2ccc(F)cc2)nc1S(=O)(=O)c1ccc(Br)cc1)NC1CCCCC1` the value was inactive: -10.8%; for `CCCOc1ccc(C2c3c(oc4ccc(F)cc4c3=O)C(=O)N2CCc2ccc(OC)cc2)cc1` (stereo not drawn), inactive: 13.6%; for `CCOc1ccc2c(c1)c(=O)c(S(=O)(=O)c1ccc(C)cc1)cn2Cc1ccccc1Cl`, inactive: -20.9%.

Consider `CC(=O)Nc1nonc1-c1nnc(SCC(=O)Nc2ccc(C)c(Cl)c2)n1C`, for which the activation was inactive: -6.35%. As to `COc1ccc(-c2nc(S(=O)(=O)c3ccc(C)cc3)c(N3CCCCC3)o2)cc1`, the activation was inactive: -40.9%.

For `Cc1ccc(CNC(=O)CN2C(=O)CC(c3ccc(C)c(C)c3)=Nc3ccccc32)cc1`, the activation was inactive: -15.3%. As for `CCCCOC(=O)c1ccc(Nc2ncnc3c2cnn3-c2cccc(C)c2)cc1`, the activation was inactive: -0.826%. `Cc1cccc(CN2CCC(CNc3ncnc4onc(-c5ccc(Cl)cc5)c34)CC2)c1`: the activation was inactive: -3.53%. For `Cc1ccc(-c2nnc3c4ccccc4c(C)nn23)cc1NC(=O)c1cccc(Br)c1`, the activation is inactive: -14.9%.

Regarding `COc1ccc(NC(=O)C2CCCN(S(=O)(=O)c3cccc4nonc34)C2)cc1Cl` (stereo not drawn), the activation is inactive: 14.7%. With `COc1ccccc1NC(=O)CSc1nc2c(oc3ccccc32)c(=O)n1Cc1ccco1`, the activation was inactive: 22.7%.

In the case of `Cn1cnc([N+](=O)[O-])c1Sc1ncnc2nc[nH]c12`, the activation is inactive: -78.5% and inactive: -60.5% and inactive: -4.95%. With `Clc1cccc(-n2cc(-c3ccccc3)c3c(NC4CCCC4)ncnc32)c1` the figure was inactive: -25.6%. On to `COc1cccc(N2CCN(c3ncnc4c3c(-c3ccccc3)cn4-c3ccc(F)cc3)CC2)c1`, for which the activation was inactive: -26.7%. Turning to `CCCCN(CC)C(=O)CCCn1c(=O)c2cccn2c2ccccc21`, the activation was inactive: -10.3%. Take `O=C(NCc1cccc(Cl)c1)NCc1noc2ccccc12`: the activation is inactive: -7.67%. Regarding `Cc1ccc(NC(=O)C(=O)NCC2(c3ccccc3)CCCC2)cc1C`, the activation was inactive: 5.59%. For `CCc1cccc(NC(=O)c2c(C)oc3nc(C)nc(N4CCCC4)c23)c1`, the activation is inactive: -7.21%. For `O=C(CN1C(=O)COc2ccc(S(=O)(=O)N3CCOCC3)cc21)N1CCN(c2ccccc2F)CC1` the value was inactive: -6.78%; for `O=C(NCCCO)c1nn(-c2ccc(Cl)cc2)nc1CO`, inactive: 2.33%. For `COC(=O)C1CCN(c2csc3ccc(Cl)cc3c2=O)CC1`, the activation was inactive: -4.04%. As to `CCCOc1ccc(CNC(=O)CN2C(=O)c3cccnc3Oc3ccc(C)cc32)cc1`, the activation was inactive: -8.65%. In the case of `Nc1nc2ncc(CNc3ccc(C(=O)N[C@@H](CCC(=O)O)C(=O)O)cc3)nc2c(=O)[nH]1`, the activation was inactive: 0.389%. In the case of `COc1cccc(NC(=O)Cn2c(=O)n(CCc3ccc(OC)c(OC)c3)c(=O)c3ccccc32)c1`, the activation was inactive: -9.3%.

Regarding `CCOc1ccc2oc(=O)cc(CN3CCN(c4ccccc4OC)CC3)c2c1`, the activation was inactive: -20.7%. Consider `CCc1ccc(OCc2cc(=O)n3cc(C)sc3n2)cc1`, for which the activation is inactive: 3.51%. Take `COc1cc(OC)c(OC)cc1CNCCCSc1nnnn1C`: the activation was inactive: -0.945%. For `COc1ccc(C(=O)N(Cc2cc(OC)c(OC)c(OC)c2)C2CCS(=O)(=O)C2)cc1Cl` (stereo not drawn), the activation was inactive: -12.8%.

With `CCc1ccc(NCc2cc3ccc(OC)cc3n(CC(=O)Nc3ccc(C)c(Cl)c3)c2=O)cc1`, the activation is inactive: -42.1%.

For the compound `Cc1ccc(CSc2nc(-c3ccccc3C)nc3c2Cc2c(CO)cnc(C)c2O3)cc1`, the activation was inactive: 33.9%. With `CCCCn1c(=N)n(CCOc2ccccc2OC)c2ccccc21` the figure was active: 64.5%; with `Cc1ccc(C(=O)c2oc3ccccc3c2NC(=O)Cc2ccccc2)cc1`, inactive: -3.84%; with `CC(C)Oc1ccc(CNC(=O)Cn2nc(N3CCN(c4ccccc4)CC3)ccc2=O)cc1`, active: 67.9%. Consider `Cn1cc(S(=O)(=O)N2CCOCC2)cc1C(=O)Nc1cccc(C#N)c1`, for which the activation was inactive: -2.59%. Turning to `CCC(=O)N1CCc2cc(OC)c(OC)cc2C1COc1ccc2c(C)cc(=O)oc2c1` (stereo not drawn), the activation is inactive: -2.96%. Regarding `CC(C)c1ccc(CNc2n[nH]c(-c3ccco3)n2)cc1`, the activation is inactive: 35.2%. For `COCCNC(=O)C1=CC(c2ccc3c(c2)OCO3)=NS(=O)(=O)N1C`, the activation was inactive: -5.39%.

In the case of `COc1ccc(C2c3c(n(C)c4ccccc34)C(=O)N2CC(=O)Nc2ccc(F)cc2)cc1` (stereo not drawn), the activation was inactive: -23.9%. With `COc1ccc(-c2ccc(=O)n(CC(=O)Nc3ccc(OC)c(OC)c3)n2)cc1` the figure was inactive: -13.2%; with `CCOc1ccc(-c2nc(SCC(=O)Nc3cc(F)ccc3F)n3[nH]c(=O)cc3n2)cc1`, inactive: 4.52%.

Turning to `Nc1nc(Cl)nc2c1ncn2[C@@H]1O[C@H](CO)[C@@H](O)[C@H]1O`, the activation was inactive: 12.8%. For `CCOC(=O)c1c(S(=O)(=O)N2CCC(C(=O)N3CCN(c4ccc(F)cc4)CC3)CC2)c(C)n(C)c1C` the value was inactive: -1.13%. Turning to `Cn1ncc2c(NCc3ccc(F)cc3)ncnc21`, the activation is inactive: 1.57%.

For `CCn1nnc2cc(C(=O)Nc3ccc(Br)cc3F)ccc21`, the activation is inactive: 29.9%. In the case of `Cn1c(=O)c2c(SCC(=O)N3CCc4ccccc43)nc(-c3ccc(Cl)cc3)nc2n(C)c1=O`, the activation was inactive: -2.06%. For `Cc1ccc(NC(=O)C2CCCN2S(=O)(=O)c2ccc3c(c2)n(C)c(=O)c(=O)n3C)cc1C` (stereo not drawn) the value was inactive: -21.9%.
